Experimental findings from PubChem BioAssay (NCI) are described below.

SMILES strings stand for the structures.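 Assay format: 96-well plates, 48-hour exposure. GI50 = concentration required for 50% inhibition of growth. TGI marks complete inhibition of growth.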 Where only a bound is given, the exact number is not on record here.

The test system of this test is NCI-H322M lung. Nature of the test: inhibition of tumour cell growth, NCI panel, 48 h.
As for `Cc1cc(C2(c3cc(C)c(OCC(O)CNc4c(C)n(C)n(-c5ccccc5)c4=O)cc3C(C)C)OC(=O)c3ccccc32)c(C(C)C)cc1OCC(O)CNc1c(C)n(C)n(-c2ccccc2)c1=O` (stereo unspecified), the GI50 was 22.2 µM and the TGI is greater than 100 µM.

As for `[2H]C([2H])([2H])Oc1ccc2ncc(C#Cc3cncc(C(=O)Nc4ccc(CN5CCN(C)CC5)c(C(F)(F)F)c4)c3)n2n1`, the GI50 was 0.99 µM and the TGI was 13.5 µM.

For `O=C(COc1ccc(NC(=O)Nc2ccc(Cl)c(Cl)c2)cc1)N=Nc1c(O)[nH]c2ccccc12`, the GI50 was 9.64 µM and the TGI came out at 31.1 µM.
